According to PubChem BioAssay (NCATS):
The shares of active, inactive and inconclusive entries below differ from those in the screen. For some of these results: Where the call is inconclusive, the potency comes from a doubtful curve fit. Active and inactive are the calls of the source. Calls follow the shape of the dose curve; as a rule, active = well fitted curve in the direction sought with a large enough effect; inconclusive = small, poorly fitted or top-dose-only effect, or another doubt; inactive = no such curve, though single readings can be large; an effect the other way counts as inactive or inconclusive.

Key:
[1] = qHTS screen for small molecules that inhibit ELG1-dependent DNA repair: Hit Confirmation in Cell-Based Luciferin Assay (AID 624247); also: potency is read from the fitted curve at half-maximal effect
Outline: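 Cell-free confirmation: 23 nL compound pin-transferred onto luciferin substrate reagent, then luciferase added. Luminescence read on a CCD imager; loss of signal flags luciferase-reporter interference.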

[2] = target: ATPase family AAA domain-containing protein 5 (Homo sapiens) (UniProt Q96QE3); assay: qHTS screen for small molecules that inhibit ELG1-dependent DNA repair in human embryonic kidney (HEK293T) cells expressing luciferase-tagged ELG1: Hit Confirmation using MMS Stimulated ELG1 (AID 624249); also: potency is read from the fitted curve at half-maximal effect; nearly all actives have a fitted effect of over 60% in size
Outline: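 ELG1-luciferase HEK293T cells were plated at 2,000 cells/well, and about 5 h later test compounds were pin-transferred alongside MMS (final 10 µM). After 16 h, luciferase activity was read with Amplight reagent; hits suppress the signal.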

[3] = qHTS screen for small molecules that inhibit ELG1-dependent DNA repair: Hit Confirmation with 5FU Viability (AID 624250); also: potency is read from the fitted curve at half-maximal effect
Outline: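 Compounds are tested on ELG1-luc HEK293T cells in the presence of 5-fluorouridine (final 10 µM). Viability is measured with CellTiter-Glo 16 h after compound addition.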

[4] = target: ATPase family AAA domain-containing protein 5 (Homo sapiens) (UniProt Q96QE3); assay: HTS assay for small molecules that inhibit ELG1-dependent DNA repair in human embryonic kidney (HEK293T) cells expressing luciferase-tagged ELG1: Hit Confirmation (AID 624248);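 also: series mostly up to about 46 µM; actives are inhibitors that lower the ELG1-luciferase luminescence; nearly all actives have a fitted effect of over 55% in size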
Outline: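 Suppression of ELG1-luciferase signal was read by ONE-Glo luminescence in HEK293T reporter cells after 16 h at 37 C co-treatment with compound and 5-fluorouridine as DNA-damaging agent.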

[5] = qHTS screen for small molecules that inhibit ELG1-dependent DNA repair: Hit Confirmation with MMS Viability (AID 624251);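 also: ELG1-luc HEK293T cells co-treated with 10 µM MMS; potency is read from the fitted curve at half-maximal effect; nearly all actives have a fitted effect of over 60% in size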
Outline: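 Luminescent ATP read-out (CellTiter-Glo) gives viability of ELG1-luc HEK293T cells exposed to compounds together with 10 µM methyl methanesulfonate for 16 h.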
Tags tell the direction and shape of the fitted curve.

Sequence of UniProt Q96QE3 (Q96QE3 whole entry, looked up, the tested form may be a part): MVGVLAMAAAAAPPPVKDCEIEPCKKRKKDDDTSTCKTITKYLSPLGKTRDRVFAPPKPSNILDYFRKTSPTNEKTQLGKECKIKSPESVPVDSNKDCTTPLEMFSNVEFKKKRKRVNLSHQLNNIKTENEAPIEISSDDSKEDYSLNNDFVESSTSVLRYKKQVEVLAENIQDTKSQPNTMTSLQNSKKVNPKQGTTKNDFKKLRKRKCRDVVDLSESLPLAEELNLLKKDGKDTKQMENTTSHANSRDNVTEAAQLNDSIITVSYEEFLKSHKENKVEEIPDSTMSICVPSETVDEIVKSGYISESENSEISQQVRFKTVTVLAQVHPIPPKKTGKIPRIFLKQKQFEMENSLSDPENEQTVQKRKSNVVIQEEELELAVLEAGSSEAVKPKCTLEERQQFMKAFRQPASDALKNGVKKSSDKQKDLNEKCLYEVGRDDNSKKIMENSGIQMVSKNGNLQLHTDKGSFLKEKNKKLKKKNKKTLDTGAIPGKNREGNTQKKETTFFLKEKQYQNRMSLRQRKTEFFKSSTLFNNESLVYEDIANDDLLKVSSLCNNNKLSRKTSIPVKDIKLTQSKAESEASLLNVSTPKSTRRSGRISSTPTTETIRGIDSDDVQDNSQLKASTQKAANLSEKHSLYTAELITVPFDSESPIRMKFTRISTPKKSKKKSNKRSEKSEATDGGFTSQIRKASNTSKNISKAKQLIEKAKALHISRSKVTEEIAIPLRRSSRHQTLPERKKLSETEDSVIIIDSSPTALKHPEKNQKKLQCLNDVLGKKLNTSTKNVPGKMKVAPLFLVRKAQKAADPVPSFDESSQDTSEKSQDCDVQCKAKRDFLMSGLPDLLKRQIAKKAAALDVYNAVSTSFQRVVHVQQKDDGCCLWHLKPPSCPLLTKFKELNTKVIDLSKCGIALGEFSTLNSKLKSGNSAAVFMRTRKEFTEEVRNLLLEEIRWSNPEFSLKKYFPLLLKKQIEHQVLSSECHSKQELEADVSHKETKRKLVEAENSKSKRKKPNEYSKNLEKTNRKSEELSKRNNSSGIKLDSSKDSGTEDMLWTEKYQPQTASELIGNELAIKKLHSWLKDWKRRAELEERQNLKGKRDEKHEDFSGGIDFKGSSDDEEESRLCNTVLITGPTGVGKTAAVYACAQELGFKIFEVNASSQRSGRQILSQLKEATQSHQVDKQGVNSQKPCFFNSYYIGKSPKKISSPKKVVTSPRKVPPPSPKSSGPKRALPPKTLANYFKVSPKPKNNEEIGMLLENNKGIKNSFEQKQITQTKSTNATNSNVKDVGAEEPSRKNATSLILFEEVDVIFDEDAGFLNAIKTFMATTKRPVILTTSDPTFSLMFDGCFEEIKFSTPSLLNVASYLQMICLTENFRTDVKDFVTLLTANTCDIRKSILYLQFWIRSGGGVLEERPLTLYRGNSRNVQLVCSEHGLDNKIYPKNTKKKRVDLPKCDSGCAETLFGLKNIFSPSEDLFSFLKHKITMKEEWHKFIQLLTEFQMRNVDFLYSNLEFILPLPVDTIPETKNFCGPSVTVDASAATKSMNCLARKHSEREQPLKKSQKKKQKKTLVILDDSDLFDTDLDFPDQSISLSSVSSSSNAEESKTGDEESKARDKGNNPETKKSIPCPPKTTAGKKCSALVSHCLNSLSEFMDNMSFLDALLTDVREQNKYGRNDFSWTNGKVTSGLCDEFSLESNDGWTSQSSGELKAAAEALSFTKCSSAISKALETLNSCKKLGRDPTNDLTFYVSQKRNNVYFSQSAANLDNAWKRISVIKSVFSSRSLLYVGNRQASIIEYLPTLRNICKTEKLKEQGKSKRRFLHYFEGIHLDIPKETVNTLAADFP

COc1cc2c(cc1OC)CN(c1nc(CN3CCOCC3)nc3sc4c(c13)CCCC4)CC2
Potency [1]: inconclusive: 15.8 µM [inhibitor, partial curve] | Potency [2]: active: 9.97 µM | Potency [3]: inconclusive: 4.45 µM [rising, partial curve]

Cc1ccc(S(=O)(=O)NCCc2nnc3ccc(SCC(=O)Nc4nc5ccccc5s4)nn23)cc1
Potency [1]: inconclusive: 28.1 µM [inhibitor, partial curve, poor fit] | Potency [4]: inactive | Potency [3]: inactive

CC(C)(C)OC(=O)NCc1ccc(NC(=O)c2nc[nH]c2C(=O)NCCCCNC(=O)c2[nH]cnc2C(=O)Nc2ccc(CNC(=O)OC(C)(C)C)cc2)cc1
Potency [5]: inconclusive: 4.45 µM [cytotoxic, full curve]
